Data reported in PubChem BioAssay AID1347070 (National Center for Advancing Translational Sciences (NCATS), 2019).
The campaign covered roughly 94,000 compounds. About 20 (0.02%) were called active. Inconclusive means that the source gave no clear call. Such entries were picked first, then a sample of the others. Calls come from the whole dose curve; as a rule, active = well fitted activation curve with a large enough effect; inconclusive = small, poorly fitted or top-dose-only effect; inactive = flat fitted curve, though single readings scatter. No potency is given beside an inconclusive call; the fits are too rough.

Assay: qHTS of alpha-syn Inhibitors: NCGC Sytravon Library Screen; for growth rescue (activation): 0% is about no effect
Details: S. cerevisiae alpha-synuclein toxicity rescue, BacTiter-Glo growth, 24 h; growth rescue (activation): at 46.1 µM (top of the series)
Outline: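 Growth restoration measured by BacTiter-Glo luminescence after 24 hr at 30 deg C; alpha-synuclein yeast, raffinose-pregrown to mid-log, were added at OD600=0.02 in galactose medium onto pinned compounds.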
Potency is the fitted concentration of half-maximal effect; tags give direction and shape of the fitted curve.

Row | SMILES | Potency | growth rescue (activation)
1 | COc1ccc(CCNC(=O)CCn2c(=O)c3ccccc3n(CC(=O)Nc3cc(Cl)ccc3C)c2=O)cc1OC | inconclusive [activator, single point] | 
2 | COc1ccccc1-c1nc2c(c(SCc3cc(C)ccc3C)n1)Cc1c(CO)cnc(C)c1O2 | inactive | 
3 | Cc1ccc(N(CC(O)Cn2c3ccccc3c3ccccc32)S(=O)(=O)c2ccc(F)cc2)cc1 (configuration not stated) | inconclusive [activator, single point] | 
4 | COc1cccc(-c2nc(SCc3cccc(Br)c3)n3[nH]c(=O)cc3n2)c1 | inactive | 
5 | O=S(=O)(Nc1ccc(Nc2ccccc2)cc1)c1ccc(F)cc1 |  | inconclusive: 50.6% [activator]
6 | CCc1nnc2c(Nc3cc(OC)c(Cl)cc3OC)nc3ccccc3n12 | inactive | 
7 | COc1ccc(S(=O)(=O)N(CCc2ccccc2)CC(=O)Nc2cc(Cl)ccc2C)cc1 | inconclusive [activator, single point] | 
8 | CCCN(CCC)CCNC(=O)c1cc2c(=O)oc3ccc(C)cc3c2s1 | inconclusive [activator, single point] | 
9 | Cc1cc(C)cc(OCC(=O)N(Cc2ccco2)Cc2ccccc2Cl)c1 | inconclusive [activator, single point] | 
10 | COc1ccc2nc(N(Cc3cccnc3)C(=O)c3ccc(Cl)cc3)sc2c1 | inconclusive [activator, full curve] | 
11 | CCc1ccc2nc(N(Cc3cccnc3)C(=O)Cc3ccccc3)sc2c1 | inconclusive [activator, single point] | 
12 | O=C(CSc1oc(-c2ccc(F)cc2)nc1S(=O)(=O)c1ccccc1)c1ccc(Cl)cc1 | inactive | 
13 | COc1ccc(C(C)C)cc1S(=O)(=O)NCCc1c(C)[nH]c2c(Cl)cccc12 | inconclusive [activator, single point] | 
14 | C[C@H](NC(=O)OC(C)(C)C)c1nnc(SCc2ccc(Cl)cc2Cl)o1 | inconclusive [activator, single point] | 
15 | CC(C)c1ccc(NC(=O)c2cc(S(=O)(=O)NCCc3ccccc3)ccc2F)cc1 | inconclusive [activator, single point] | 
16 | CN(C)S(=O)(=O)N(CC(=O)NCCSCc1ccc(Cl)cc1Cl)c1ccccc1 | inconclusive [activator, single point] | 
17 | Cc1cccc(-n2c(SCC(=O)Nc3ccccc3Cl)nc3n[nH]c(C)c3c2=N)c1 | inconclusive [activator, single point] | 
18 | COc1cc(OC)cc(C(=O)NCc2ccc3c(c2)CCN3C(=O)c2ccccc2)c1 | inactive | 
19 | CC(C)C1C(=O)N(Cc2cn(CCC3OCCO3)nn2)CCS(=O)(=O)N1Cc1ccc(-c2ccc(Cl)c(Cl)c2)cc1 (configuration not stated) |  | inconclusive: 36.2% [activator]
20 | O=C(OCc1ccccc1F)c1ccc(-c2nnn(Cc3ccccc3)n2)cc1 | inactive | 
21 | COc1ccccc1N1CCN(C(=O)c2ccc3c(c2)N(Cc2ccccc2)C(=O)c2ccccc2S3(=O)=O)CC1 | inactive | 

Row | SMILES | Potency | growth rescue (activation)
22 | Cc1ccc(C(=O)/C=C/c2cn(CC(O)CN3CCc4ccccc43)c3ccccc23)cc1 (configuration not stated) | inconclusive [activator, single point] | 
23 | Cc1oc(-c2ccccc2)nc1CSc1nnc(C)n2c1cc1sccc12 | inconclusive [activator, single point] | 
24 | O=C(O)CCCCCCCCCCP(=O)(c1ccccc1)c1ccccc1 |  | inconclusive: 95.4% [activator]
25 | O=C(NCc1ccc(Cl)cc1)C1CCN(S(=O)(=O)c2ccc3c(c2)CCCN3C(=O)C2CCC2)CC1 | inactive | 
26 | Cc1ccc(C(=O)c2cn(Cc3ccccc3F)c3cc4c(cc3c2=O)OCO4)cc1 | inactive | 
27 | Cc1cc(C)c(S(=O)(=O)NCC(c2ccco2)N2CCN(c3ccccc3)CC2)c(C)c1 (configuration not stated) | inconclusive [activator, single point] | 
28 | COc1ccc(S(=O)(=O)N2CCC(c3nnc(-c4ccccc4C)o3)CC2)c(OC)c1 | inconclusive [activator, single point] | 
29 | COc1cc(-c2nc3cnccn3c2Nc2ccc(C(C)C)cc2)ccc1O | inactive | 
30 | Cc1ccc(CNC(=O)c2cnn(-c3ccc(F)cc3F)c2C2CCN(C(=O)OC(C)(C)C)CC2)cc1 | inconclusive [activator, single point] | 
31 | O=C(C1CCN(C2CCN(Cc3ccc4c(c3)CCO4)CC2)CC1)N1CCCC1 |  | inconclusive: 63.3% [activator]
32 | Cc1cccc2c1-c1sc(C(=O)NCCCN3CCN(c4cccc(Cl)c4)CC3)cc1CO2 |  | inconclusive: -41.5% [activator]
33 | COc1cccc(C(=O)NC(c2ccc(Cl)cc2)c2cc(Cl)c3cccnc3c2O)c1 (configuration not stated) | inconclusive [activator, single point] | 
34 | CCCCn1c(N)c(N(CCOC)C(=O)c2sc3ccccc3c2Cl)c(=O)[nH]c1=O | inactive | 
35 | COc1ccc(CCNC(=O)CCn2c(=O)c3ccccc3n(CC(=O)Nc3cccc(C)c3)c2=O)cc1OC | inactive | 
36 | Cc1cc(C)c2c(CC(=O)Nc3nnc(CC(C)C)s3)coc2c1 | inconclusive [activator, single point] | 
37 | COc1nnc(-c2ccc(N3CCCCC3)c(NC(=O)c3ccccc3Cl)c2)c2ccccc12 | inconclusive [activator, single point] | 
38 | CC(=O)N1CC2(c3ccccc3)CN(C(C)=O)CC(c3ccccc3)(C1)C2=O | inactive | 
39 | COc1ccc(S(=O)(=O)Nc2ccc(-n3cccc3)cc2)cc1 |  | inconclusive: 108% [activator]
40 | COc1ccc(NS(=O)(=O)c2ccc(-c3cnc(C4CC4)o3)cc2)cc1Cl | inconclusive [activator, single point] | 
41 | O=C(Cn1cc(SCc2ccc(F)cc2)c2ccccc21)N1CCCCC1 | inconclusive [activator, single point] | 
42 | COc1ccc2nc(N(Cc3cccnc3)C(=O)C3COc4ccccc4O3)sc2c1 (configuration not stated) | inconclusive [activator, single point] | 
